In all, about 310,000 compounds went through this assay and about 14,000 (4.5%) showed an effect of 50% or more. The effect is printed as a negative number. This is one part of the list.
molecular target: human ether-à-go-go-related gene (hERG) potassium channel (human, UniProt Q12809); assay: primary screen, population patch clamp on CHO cells stably expressing hERG
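Further: peak tail current of the secondary pulse compared with the same well before compound.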

Sequence of human ether-à-go-go-related gene (hERG) potassium channel (Q12809 whole entry, looked up): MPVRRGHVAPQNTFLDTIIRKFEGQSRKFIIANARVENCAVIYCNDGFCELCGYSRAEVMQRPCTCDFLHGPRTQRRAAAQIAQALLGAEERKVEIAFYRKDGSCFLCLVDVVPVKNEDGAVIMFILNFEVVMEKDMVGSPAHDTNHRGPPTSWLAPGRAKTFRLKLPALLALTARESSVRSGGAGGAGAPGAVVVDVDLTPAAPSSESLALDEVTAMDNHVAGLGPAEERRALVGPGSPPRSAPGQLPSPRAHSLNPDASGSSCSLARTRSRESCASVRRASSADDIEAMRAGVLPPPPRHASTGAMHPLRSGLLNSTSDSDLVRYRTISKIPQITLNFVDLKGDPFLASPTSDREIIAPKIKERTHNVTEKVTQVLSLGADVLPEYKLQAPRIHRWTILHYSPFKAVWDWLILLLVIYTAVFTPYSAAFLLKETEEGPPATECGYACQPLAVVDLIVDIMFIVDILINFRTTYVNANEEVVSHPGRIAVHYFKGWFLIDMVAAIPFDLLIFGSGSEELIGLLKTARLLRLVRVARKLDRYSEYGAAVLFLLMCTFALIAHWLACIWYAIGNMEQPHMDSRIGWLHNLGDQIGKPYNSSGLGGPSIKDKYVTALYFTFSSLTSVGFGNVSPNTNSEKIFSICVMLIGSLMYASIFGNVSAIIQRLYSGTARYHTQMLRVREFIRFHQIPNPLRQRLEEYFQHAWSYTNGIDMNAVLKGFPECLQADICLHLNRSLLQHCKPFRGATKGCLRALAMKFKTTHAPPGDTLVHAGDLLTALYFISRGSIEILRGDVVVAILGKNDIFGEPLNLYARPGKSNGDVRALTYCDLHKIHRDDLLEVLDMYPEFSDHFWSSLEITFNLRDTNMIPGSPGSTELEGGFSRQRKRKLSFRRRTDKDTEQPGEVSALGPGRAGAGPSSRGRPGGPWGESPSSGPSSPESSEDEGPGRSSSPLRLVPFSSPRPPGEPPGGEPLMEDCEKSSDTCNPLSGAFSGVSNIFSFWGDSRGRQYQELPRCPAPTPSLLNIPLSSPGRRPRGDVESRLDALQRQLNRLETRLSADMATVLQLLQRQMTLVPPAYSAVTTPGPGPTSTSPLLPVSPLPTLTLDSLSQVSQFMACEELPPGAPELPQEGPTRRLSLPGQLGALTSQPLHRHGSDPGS

Structure (SMILES)	hERG current change (%, negative = inhibition) at 10uM [%]
CC(C)(C)NC(=O)c1cccnc1Sc1ccccc1	18.7
O=C(CN1CCCCC1)N/N=C/c1ccccc1Br	-4.47
CCOc1ncccc1C(=O)Nc1cccc(Cl)c1Cl	15.8
O=C(CSc1ccccc1)NCc1ccco1	7.06
COCCNS(=O)(=O)c1cc(-c2nn(C)c(=O)c3ccccc23)ccc1C	-28.9
NC(=O)[C@H](Cc1cc2ccccc2s1)NC(=O)[C@@H]1CC2(CC(c3cccc(NC(=O)[C@@H]4CCC(=O)N4)c3)=NO2)CN1C(=O)c1ccccc1 (stereo partly drawn)	-9
CC1CCC/C(=N/NC(=O)c2ccccc2-n2cccc2)C1 (stereo not drawn)	5.95
Cc1nnc(NC(=O)CCCCCN2C(=O)C3C4C=CC(C4)C3C2=O)s1 (stereo not drawn)	-9.98
Cc1ccccc1C(=O)NC1CCN(C(=O)NCc2ccccc2)CC1	2.6
Cc1ccc(NC(=O)N[C@H](C(=O)O)C(C)C)c(C)c1	14.9
CCn1nnc(NC(=O)c2ccc(C(C)(C)C)cc2)n1	0.506
Cc1nnc(SCC(=O)NC2CCCCCC2)n1N	4.34
COc1cc(CNCCCN2CCOCC2)c(Br)cc1OC(C)C.Cl	5.58
COc1cccc(-n2c(SCC(=O)N3c4ccccc4CC3C)nnc2-c2ccco2)c1 (stereo not drawn)	-27
O=C1C2CCCN2C(c2cccc(F)c2)N1c1cccc(Cl)c1 (stereo not drawn)	-11.4
CC1CCc2c(sc(NC(=O)CCc3nc4ccccc4c(=O)[nH]3)c2C#N)C1 (stereo not drawn)	0.559
COc1ccc(/C(N)=N/O)c(OC)c1	17
CCc1cc2c(cc3c(=O)n(CC(=O)N4CCN(c5ccccn5)CC4)nc(CC)n32)s1	0.361
CCNC(=S)N1CCN(CCNC2=CC(=O)CC(C)(C)C2)CC1	-12.2
O=C(Nc1ccc(S(=O)(=O)N2CCOCC2)cc1)c1ccc(S(=O)(=O)N2CCOCC2)cc1	10.7
Cc1cc(C(=O)COC(=O)c2ccc(O)cc2)c(C)n1CC1CCCO1 (stereo not drawn)	12.3
Cc1c(C(=O)NCc2ccc(S(N)(=O)=O)cc2)oc2ccc(Cl)cc12	10
Br.Clc1ccc2nc(CN3CCCCC3)cn2c1	-32.7

Structure (SMILES)	hERG current change (%, negative = inhibition) at 10uM [%]
CC(C)CCn1nnnc1C(c1ccccc1)N1CCC(C(N)=O)CC1 (stereo not drawn)	-2
Nc1ccc(Nc2nc3ccccc3[nH]2)cc1	19.2
N#CCc1c(C#N)c(N)nc(N2CCOCC2)c1C#N	1.34
CCOc1ccc(N(Cc2cc3cc(OC)ccc3[nH]c2=O)S(C)(=O)=O)cc1	0.193
O=C(CN1C(=O)c2ccc([N+](=O)[O-])cc2C1=O)NC1CCCCCC1	1.09
CC(C)N1CCC(N2CCN(C3CCCCC3)CC2CCO)CC1 (stereo not drawn)	18.9
O=C(CSc1nnc(-c2ccncc2)s1)Nc1ccccc1	3.19
CSc1cccc(NC(=O)Cn2cccc2)c1	-4.81
O=c1cnnc(Nc2ccccc2F)[nH]1	14.1
CCS(=O)(=O)N1Cc2ccccc2CC1C(=O)Nc1ccc(F)cc1 (stereo not drawn)	-4.02
COc1ccc(N2Cc3ccccc3C2)cc1Cl	-59.9
CCC(C)(C)NC(=O)CN(C(=O)CCC(=O)Nc1nccs1)c1ccc2c(c1)OCCO2	4.58
Cc1ccc(C(=O)N/C(=C\c2cccc([N+](=O)[O-])c2)C(=O)OCN2C(=O)c3ccccc3C2=O)cc1	-11
Cc1cccc(Nc2sc(C(=O)c3cc4cc(Cl)ccc4o3)c(N)c2C#N)c1	-2.78
COc1ccc2c(c1)CC/C(=C\c1ccc(OC)c(Cn3nc(C)cc3C)c1)C2=O	-6.86
CCOC(=O)c1ccc(-n2ncc(C(=O)OCC)c2N)cc1	1.11
CCCCCC(=O)Nc1cccc(C2=NOC3(C2)C[C@@H](C(N)=O)N(C(=O)c2ccc(Cl)cc2)C3)c1 (stereo partly drawn)	-29.6
O=C(Nc1cccc(F)c1)c1cc(S(=O)(=O)N2CCC(C(=O)O)CC2)ccc1F	-1.84
Cc1c(NC=C(C#N)C#N)c(=O)n(-c2ccccc2)n1C	35.5
O=C(NCc1ccncc1)C1CCN(S(=O)(=O)Cc2ccccc2)CC1	-10.4
O=C(CSc1ccccn1)N1CCN(c2ccc(Cl)cc2)CC1	-5.36
CN(C(=O)c1ccco1)c1ccccc1C(=O)O	17.8
CN1C(=O)C(O)(CC(=O)/C=C/C=C/c2ccccc2)c2ccccc21 (stereo not drawn)	-0.539

Structure (SMILES)	hERG current change (%, negative = inhibition) at 10uM [%]
COc1ccc(/C=C2\Sc3ccc(C(=O)NC4CC4)cc3N(C)C2=O)cc1OC	-34.6
Fc1ccc(C2C3=C(Nc4ncnn42)c2ccccc2OC3c2ccncc2)cc1 (stereo not drawn)	-60.4
Cc1cc2oc(=O)cc(CSc3nnc(-c4cccs4)o3)c2cc1C(C)C	9.78
Cc1cccnc1NC(=O)C1CCCN(S(=O)(=O)c2ccc3c(c2)oc(=O)n3C)C1 (stereo not drawn)	5.8
O=C(Nc1ccc2c(c1)OCO2)c1cccc(S(=O)(=O)N2CCOCC2)c1	-8.39
c1ccc(-c2nnc(-c3ccncc3)o2)cc1	-6.95
NS(=O)(=O)c1ccc(CCN=Cc2ccccc2O)cc1	3.18
COc1ccc(S(=O)(=O)Nc2nnc(C(C)C)s2)cc1	-9.22
CCOC(=O)c1c(C)[nH]c(C)c1S(=O)(=O)N(C)CC(=O)Nc1cccc(F)c1	8.39
COc1ccc(S(=O)(=O)Nc2ccc(S(=O)(=O)Nc3nc(C)cc(C)n3)cc2)cc1OC	7.44
CCc1nn(CC(=O)NCCCN2CCN(C)CC2)c(=O)c2cc3sc(C)cc3n12	14.8
COC1OC(CO)C(O)C(O)C1O (stereo not drawn)	-1.61
CC(C)c1ccc(NC(=O)COC(=O)COc2ccccc2)cc1	-6.4
CCN(CC)C(=O)N1CCC(NC(=O)c2ccc(C(C)(C)C)cc2)CC1	-5.14
CCOC(=O)CSc1nc(N)cc(=O)[nH]1	7.78
O=C(COc1cccnc1[N+](=O)[O-])N1CCc2ccccc2C1	4.11
CC(=O)NC(NC(=S)Nc1ccc(C)cc1C)C(Cl)(Cl)Cl (stereo not drawn)	6.31
CCOC(=O)C1(Cc2ccc(OC)cc2)CCN(C(=O)C2=CCCC2)CC1	-33.8
CCc1cccc(Nc2c3c(nc4ncnn24)CCC3)c1	-0.116
CN1c2ccccc2N(C)C1(C)c1ccccc1	5.91
COc1cccc(CC(=O)NC2CCSc3ccccc32)c1 (stereo not drawn)	8.06
CC(O)(C#CCN1CCCCC1)c1ccccc1 (stereo not drawn)	1.9
O=C(O)CCCCCNC(=O)Nc1ccc2c(c1)OCCO2	14.1

Structure (SMILES)	hERG current change (%, negative = inhibition) at 10uM [%]
Cc1ccc(S(=O)(=O)Nc2cc3c4c(c2)CCC(=O)N4CCC3)cc1	-24.9
Cc1cc(C)n(-c2ccc(F)cc2)c(=O)c1C#N	28.4
CC(C(=O)Nc1ccc(O)cc1C(=O)O)N1C(=O)/C(=C\c2cccs2)SC1=S (stereo not drawn)	19.1
CCC(=O)Nc1cccc(C(=O)N(Cc2ccccc2)Cc2ccccc2)c1	-5.82
COc1ccc(S(=O)(=O)N(C)CC(=O)N2CCC(C(N)=O)CC2)cc1Cl	-0.778
CCN(CC)C(=O)C1CCCN(Cc2ccc(N(C)C)cc2)C1 (stereo not drawn)	-12.5
O=C(Cc1cccs1)N(CC1CCCO1)C1(C(=O)NC2CCCC2)CCCCC1 (stereo not drawn)	-17.8
COC(=O)CC1SC(=O)NC1=Nc1ccc(O)cc1 (stereo not drawn)	9.16
CCOC(=O)CSc1nc2ccccc2n1CC(=O)N(C(C)C)C(C)C	-2.13
CC1=NNC(=O)C1CCC(=O)N/N=C/C(Br)=C/c1ccccc1 (stereo not drawn)	1.72
COCCn1c(N)c(Sc2ccccc2[N+](=O)[O-])c(=O)[nH]c1=O	-0.344
CCOCCCNC(=O)c1cn(CC)c2ccc(S(=O)(=O)N3CCCC3)cc2c1=O	-6.08
CC(=O)N1CCOc2ccc(S(=O)(=O)N(C)c3cccc(C)c3)cc21	-16.7
COc1ccc(OC)c(-n2c(O)c(C=Nc3c(C)n(C)n(-c4ccccc4)c3=O)c(=O)[nH]c2=S)c1	17.5
COCCn1c(C)cc(C2=NNC(=Nc3ccc(Cl)cc3Cl)SC2)c1C	7.57
COc1ccccc1N(CC(=O)NC(C)(C)C)C(=O)c1ccc(Cl)nc1	8.32
O=C(CS(=O)(=O)Cc1ccccc1)N1CCN(C(=O)c2ccco2)CC1	-30.7
CSCCC(NC(=O)COc1ccccc1)C(=O)OCC(=O)c1ccccc1 (stereo not drawn)	4.14
O=C(COC(=O)Cc1ccccc1[N+](=O)[O-])NC1CCCC1	-2.09
CCn1cc(CN2CCC(n3nccc3NC(=O)Cc3ccccc3)CC2)cn1	7.27
CCn1c(=O)n(CC)c2cc(N3CCCC3)c(NC(=O)c3ccccc3)cc21	6.71

Reference: PMC4336329 (PLoS ONE, 2015)
